Assay results: paper PMC9911399, “Two distinct binding modes provide the RNA-binding protein RbFox with extraordinary sequence specificity”
Residue numbers refer to the chain shown, from its start. Some of the results follow.

T1: RBFOX1 RRM RbFoxmut (Fox-RRM*) (Homo sapiens, UniProt Q9NWB1 109-208, R118D;E147R;N151S;E152T)
T1 sequence: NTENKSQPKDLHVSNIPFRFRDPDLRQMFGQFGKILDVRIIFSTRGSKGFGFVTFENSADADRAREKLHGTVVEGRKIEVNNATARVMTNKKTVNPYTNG

B1: AGUUAAU (DNA:RNA)
RNA: GGGAGACCGGAAUUCAGAUUGUCCAGUUAAUUUAAAUCCCGUCGUAGCCACCA
DNA 1: CAATCTGAATTCCGGTCTCCC
DNA 2: TGGTGGCTACGACGGGATT
B2: UUGUAAG (DNA:RNA)
RNA: B1 RNA with A25U, G26U, U27G, U31G
DNA 1: CAATCTGAATTCCGGTCTCCC
DNA 2: TGGTGGCTACGACGGGATT
B3: UUCGAUA (DNA:RNA)
RNA: B1 RNA with A25U, G26U, U27C, U28G, A30U, U31A
DNA 1: CAATCTGAATTCCGGTCTCCC
DNA 2: TGGTGGCTACGACGGGATT
B4: UCGGACG (DNA:RNA)
RNA: B1 RNA with A25U, G26C, U27G, U28G, A30C, U31G
DNA 1: CAATCTGAATTCCGGTCTCCC
DNA 2: TGGTGGCTACGACGGGATT
B5: GGGCUGU (DNA:RNA)
RNA: B1 RNA with A25G, U27G, U28C, A29U, A30G
DNA 1: CAATCTGAATTCCGGTCTCCC
DNA 2: TGGTGGCTACGACGGGATT
B6: GGUACGG (DNA:RNA)
RNA: B1 RNA with A25G, U28A, A29C, A30G, U31G
DNA 1: CAATCTGAATTCCGGTCTCCC
DNA 2: TGGTGGCTACGACGGGATT
B7: ACAUCGA (DNA:RNA)
RNA: B1 RNA with G26C, U27A, A29C, A30G, U31A
DNA 1: CAATCTGAATTCCGGTCTCCC
DNA 2: TGGTGGCTACGACGGGATT
B8: AAUCGCG (DNA:RNA)
RNA: B1 RNA with G26A, U28C, A29G, A30C, U31G
DNA 1: CAATCTGAATTCCGGTCTCCC
DNA 2: TGGTGGCTACGACGGGATT
B9: ACAUUUA (DNA:RNA)
RNA: B1 RNA with G26C, U27A, A29U, A30U, U31A
DNA 1: CAATCTGAATTCCGGTCTCCC
DNA 2: TGGTGGCTACGACGGGATT
B10: CGGAUAC (DNA:RNA)
RNA: B1 RNA with A25C, U27G, U28A, A29U, U31C
DNA 1: CAATCTGAATTCCGGTCTCCC
DNA 2: TGGTGGCTACGACGGGATT
B11: CUAGACA (DNA:RNA)
RNA: B1 RNA with A25C, G26U, U27A, U28G, A30C, U31A
DNA 1: CAATCTGAATTCCGGTCTCCC
DNA 2: TGGTGGCTACGACGGGATT
B12: ACCCUGG (DNA:RNA)
RNA: B1 RNA with G26C, U27C, U28C, A29U, A30G, U31G
DNA 1: CAATCTGAATTCCGGTCTCCC
DNA 2: TGGTGGCTACGACGGGATT
B13: CAAGUAG (DNA:RNA)
RNA: B1 RNA with A25C, G26A, U27A, U28G, A29U, U31G
DNA 1: CAATCTGAATTCCGGTCTCCC
DNA 2: TGGTGGCTACGACGGGATT
B14: UUGGUAU (DNA:RNA)
RNA: B1 RNA with A25U, G26U, U27G, U28G, A29U
DNA 1: CAATCTGAATTCCGGTCTCCC
DNA 2: TGGTGGCTACGACGGGATT
B15: AAGCAGG (DNA:RNA)
RNA: B1 RNA with G26A, U27G, U28C, A30G, U31G
DNA 1: CAATCTGAATTCCGGTCTCCC
DNA 2: TGGTGGCTACGACGGGATT
B16: AUUGGGC (DNA:RNA)
RNA: B1 RNA with G26U, U28G, A29G, A30G, U31C
DNA 1: CAATCTGAATTCCGGTCTCCC
DNA 2: TGGTGGCTACGACGGGATT
B17: UUGUUUC (DNA:RNA)
RNA: B1 RNA with A25U, G26U, U27G, A29U, A30U, U31C
DNA 1: CAATCTGAATTCCGGTCTCCC
DNA 2: TGGTGGCTACGACGGGATT
B18: GACCGCG (DNA:RNA)
RNA: GGGAGACCGGAAUUCAGAUUGUCCGACCGCGUUAAAUCCCGUCGUAGCCACCA
DNA 1: CAATCTGAATTCCGGTCTCCC
DNA 2: TGGTGGCTACGACGGGATT
B19: CCGUAGC (DNA:RNA)
RNA: B1 RNA with A25C, G26C, U27G, A30G, U31C
DNA 1: CAATCTGAATTCCGGTCTCCC
DNA 2: TGGTGGCTACGACGGGATT
B20: UACGGAG (DNA:RNA)
RNA: B18 RNA with G25U, C28G, C30A
DNA 1: CAATCTGAATTCCGGTCTCCC
DNA 2: TGGTGGCTACGACGGGATT

biological target: T1, RBFOX1 RRM RbFoxmut (Fox-RRM*); assay: EMSA; HiTS-Eq, 1 nM pool, 10 min; buffer printed only for the single-RNA assays: 10 mM Tris pH 7.5, 150 mM NaCl, 3.4 mM EDTA, 0.001% NP-40, 30 C; settings: tags: His6 N-terminal (pET28a); label: 5' 32P
How it was run: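 Relative association constants, normalised to the cognate motif, were derived by comparing read counts of each RNA species with those of the control reaction. The RNA sequenced was the free fraction, separated by 8% native PAGE after a 10 min equilibration in 50 µL of 1 nM 5′-radiolabelled RNA (7 randomized nucleotides) with increasing concentrations of purified wild-type or mutant RbFox RRM.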

B1 was tested. Which binding signal did it give?
Its binding signal is 0.0918 KA relative to UGCAUGU.

For B2, which binding signal is on record?
The binding signal was 0.141 KA relative to UGCAUGU.

For B3, which binding signal is on record?
Its binding signal is 0.0965 KA relative to UGCAUGU.

B4 was tested. Which binding signal did it give?
Its binding signal is 0.0752 KA relative to UGCAUGU.

How did the binding signal turn out when B5 was run?
Its binding signal is 0.205 KA relative to UGCAUGU.

Which binding signal does the source give for B6 here?
Its binding signal is 0.131 KA relative to UGCAUGU.

Which binding signal does the source give for B7 here?
Its binding signal is 0.0922 KA relative to UGCAUGU.

For B8, which binding signal is on record?
Its binding signal is 0.0707 KA relative to UGCAUGU.

How did the binding signal turn out when B9 was run?
The binding signal was 0.131 KA relative to UGCAUGU.

B10 was tested. Which binding signal did it give?
The binding signal was 0.0884 KA relative to UGCAUGU.

With B11 as the binder, how does the binding signal read?
Its binding signal is 0.0461 KA relative to UGCAUGU.

How did the binding signal turn out when B12 was run?
The binding signal was 0.0978 KA relative to UGCAUGU.

B13 was tested. Which binding signal did it give?
Its binding signal is 0.117 KA relative to UGCAUGU.

B14 was tested. Which binding signal did it give?
Its binding signal is 0.181 KA relative to UGCAUGU.

For B15, which binding signal is on record?
The binding signal was 0.124 KA relative to UGCAUGU.

How did the binding signal turn out when B16 was run?
The binding signal was 0.0759 KA relative to UGCAUGU.

Which binding signal does the source give for B17 here?
The binding signal was 0.248 KA relative to UGCAUGU.

With B18 as the binder, how does the binding signal read?
Its binding signal is 0.101 KA relative to UGCAUGU.

Which binding signal does the source give for B19 here?
Its binding signal is 0.106 KA relative to UGCAUGU.

How did the binding signal turn out when B20 was run?
Its binding signal is 0.0783 KA relative to UGCAUGU.
